Reference: ChEMBL document CHEMBL4888484, “Replenishing the malaria drug discovery pipeline: Screening and hit evaluation of the MMV Hit Generation Library 1 (HGL1) against asexual blood stage Plasmodium falciparum ,using a nano luciferase reporter read-out” (2022)
Hit rate of the full screen: of about 4,800 compounds, about 410 (8.5%) showed an effect of 50% or more. The list shows a part of the results.

Each compound was assayed on Plasmodium falciparum (assay: Confirmatory screen in NF54 pLDH assay, in single point, at 2uM, 72h). Details: timepoint 72 hour.
Format: functional, Erythrocyte

Structure (SMILES)	% Inhibition [%]
CC(=O)NCC(=O)N(Cc1ccco1)C1(C(=O)NC2CCCCC2)CCCCC1	8
c1cc2c(cc1[C@H]1NCCCCCCO1)OCO2	-5
Cc1cc(C)c(NC(=O)OCc2cccc3cccnc23)c(C)c1	80
Cc1noc(C)c1C(=O)N[C@@H](CC(C)C)C(=O)OCc1ccccc1	-2
COc1ccc(CN(c2ccc(C)cc2)S(=O)(=O)c2ccc3nnc(C)n3c2)cc1	-13
CC(C)c1nccn1CCC(=O)Nc1ncn(C2CCCCC2)n1	-5
Cc1ccc(S(=O)(=O)Nc2ccc(Oc3ccc(NS(=O)(=O)c4ccc(C)cc4)cc3)cc2)cc1	11
CCN(CC)C(=O)c1cnc2snc(C)c2c1N1CCC(C(=O)Nc2c(C)cc(C)cc2C)CC1	34
COc1ccc(C)cc1-n1ccc(C(=O)N2CCCc3c(C(N)=O)cccc32)n1	-4
O=C(C1CCC1)N1CCC[C@H]1c1nc(C2CCOCC2)no1	12
O=C(Nc1nncs1)NC(C1CC1)C1CC1	5
CCOc1cc2c(cc1OC)[C@@H](N)CC2=O	10
O=C1c2cnccc2[C@](O)(c2ccccc2)N1Cc1ccccc1	-22
Cc1ccsc1NC(=O)OC(C)(C)C	9
CNc1nccc(OCc2ccccc2)n1	9
O=C(c1cccc2cc[nH]c12)N(CC1CC1)C1CC1	12
Cc1sc2ncnc(N3CCCCC3)c2c1C(=O)Nc1cc(F)ccc1Cl	8
C[C@H]1CS(=O)(=O)N(c2ccc(C(=O)Nc3ccccc3Oc3ccccc3)c(Cl)c2)C1=O	-3
COc1cccc(C(=O)N2CCC(c3nc(-c4ccc5c(c4)OCO5)no3)CC2)c1OC	8
COc1ccccc1C(=O)NC1=NN2C(=NC(c3ccc(Cl)cc3)=C[C@H]2c2ccc(Cl)cc2)N1	92
Cn1c(Cc2n[n+]3c(-c4ccccc4)cc(-c4ccccc4)nc3n2C)n[n+]2c(-c3ccccc3)cc(-c3ccccc3)nc12	95
COc1ncnc2c1CN(C(=O)NCC1(Cc3ccccc3)CCC1)CC2	-1
COc1ccc(CC[C@H](C)NC(=O)NCCCN2CCCC2=O)cc1	11
CN(C(=O)NC1CCCC1)c1nc2c(s1)CN(Cc1ccccc1)C2=O	-13
O=C(Cc1ncc(C(F)(F)F)cc1Cl)c1ccc(Cl)cc1Cl	-1

Structure (SMILES)	% Inhibition [%]
C=CCNCc1cccc(OC)c1OCC(=O)NC(C)(C)C	6
CN1CCCN(c2ccc(NC(=O)c3nn(-c4ccccc4)c(=O)c4ccccc34)cc2F)CC1	68
CCOC(=O)COc1ccc(C)cc1-c1ccno1	14
CCOC(=O)c1nc(-c2ccc(N(CC)CC)nc2)no1	6
Cc1nnc2ccc(S(=O)(=O)N(Cc3ccccc3F)c3ccccc3)cn12	-16
COc1ccc(CC[C@@H]2NCCn3cccc32)cc1	-12
Cc1ccc(S(=O)(=O)N2CCC(c3csc(N)n3)CC2)cc1	-12
O=C1CCC(Nc2ccc(Br)cn2)C(C2CC2)N1 (stereo not given)	15
CCOc1ccc(CCN2C(=O)c3c(C(=O)OC)ncn3C[C@@]2(C)C(=O)NC2CCCCCC2)cc1	12
O=C(O)C1C2C=CC(O2)C1C(=O)NC1CCCc2ccccc21 (stereo not given)	-4
CCOC(=O)C(Cc1ccc(OCc2c(F)cccc2Cl)cc1)(NC(C)=O)C(=O)OCC	7
Nc1cc(C(F)(F)F)c(Br)cc1Br	-14
O=C(COc1ccccc1)Nc1ccc2c(c1)C(O)=Nc1cccnc1O2	64
O=C(O)C1C2C=CC(C2)C1C(=O)Nc1cccc2ncccc12 (stereo not given)	9
Cc1ccc(Nc2[nH]nnc2C(=O)N[C@H]2CCc3ccccc32)cc1C	9
O=C(Nc1ccccc1)N1CCc2scc[n+]2-c2ccccc21	7
Cc1nc(-c2ccccc2)cc2nn(CC(=O)NC3CCCCC3)c(=O)n12	-8
O=C(NC1CC(c2ccccc2)C1)N1CCS(=O)(=O)CC1 (stereo not given)	-6
Cc1ccnc(Nc2ccc(N3CCNCC3)nn2)c1	65
CCOC(=O)N1CCC(NC(=O)c2cn[nH]c2-c2ccc(OCC)c(Cl)c2)CC1	10
O=C(NCc1cccc(Br)c1)c1ccc(Cl)c(-n2cnc3cccnc32)c1	7
Cc1cc(NC(=O)c2ccccn2)n(-c2nc3ccccc3o2)n1	93
NC(=NCCOc1ccc(Br)cc1)N1CCOCC1	8
Cc1ccc(NC(=O)CC(C)(C)CC2=Nc3ccccc3S(=O)(=O)N2)cc1F	6
Cc1cc(C(=O)NCC(=O)NC(C)(C)C)no1	12

Structure (SMILES)	% Inhibition [%]
O=C(O)C1Cc2c([nH]c3ccccc23)C(/C=C/c2ccccc2)N1 (stereo not given)	10
CC(=O)c1cccc(NC(=O)[C@@]23CCC(=O)N2c2ccccc2C(=O)N3C)c1	88
Cc1ccc([C@@H]2C=C(C(=O)O)Nc3c(C(N)=O)nnn32)cc1	-12
Cc1cc(C)c2nc(C)cc(Nc3ccc(O)cc3)c2c1	103
NC(=O)c1nnn2c1C(=O)N[C@H](c1ccc(Cl)cc1)C2	-13
O=C(c1cnc2ccc(F)cc2c1N1CCN(c2ccccn2)CC1)N1CCCC1	8
Clc1cc(CN2CC[C@@]3(CCCOC3)C2)ccc1OCCN1CCOCC1	11
CCc1ccc(C(=O)N2CC[C@H](CC(=O)NCc3ccccc3)C2)cc1	10
COc1cc([C@H](CC(=O)NC2CCN(Cc3ccccc3)CC2)N2Cc3ccccc3C2=O)cc(OC)c1OC	28
COc1cc(=O)c(C(=O)NCCN2CCCCC2)nn1-c1ccc(F)cc1	0
O=C(c1cc2ccccc2[nH]1)N1CCc2sc(Cl)cc2C1	5
Fc1ccc(C2=C[C@@H](c3ccc(Cl)cc3)N3N=C(c4ccc(Cl)cc4)NC3=N2)cc1	97
CN(C)C(=O)[C@H]1CCN(c2nc3cc(C(F)(F)F)ccc3s2)C1	-8
CCCN(CCC)CCN1C(=O)[C@@H]2C(C(=O)Nc3cc(Cl)cc(Cl)c3)[C@@H]3C=C[C@]2(O3)C1C(=O)NC1CCCCC1 (stereo not given in full)	50
CCCN(CC1CC1)C(=O)C1CCN(Cc2cccc3ccccc23)CC1	-23
CS(=O)(=O)N[C@@H](Cc1ccccc1)c1cccs1	5
N#Cc1ccc(CNc2cnc3ccccc3c2)o1	-16
Cn1ccc(NC(=O)C(=O)c2ccc(-c3ccccc3)cc2)n1	11
Cc1cc(CS(=O)(=O)[C@@H](C)C(=O)NCC(C)C)on1	12
Cc1nnc2ccc(S(=O)(=O)Nc3cc(F)cc(F)c3)cn12	0
O=C1CN(Cc2ccc(F)cc2)C(=O)N1[C@@H]1C[C@H]2CC[C@@H]1O2	12
CCC(C)c1ccc(NC(=O)N2CC(c3ccccc3)C(c3ccc(Cl)cc3)=N2)cc1 (stereo not given)	11
O[C@@H](CNc1cc(-c2ccccc2)nc2ncnn12)COCC1CC1	3
O=C1C(c2ccccc2)=NOC12CCCCC2	-4
CC1=CCN(C(=O)Nc2nccs2)CC1	5

Structure (SMILES)	% Inhibition [%]
Cc1nc2ncnn2c(N2CCc3nc(N)sc3C2)c1C	-4
CCN(CC)c1ncnc(N(C)Cc2ccccc2)c1N	9
CN(C(=O)c1ccccc1Br)C(C)(C)C	-5
CCN(CC(C)(C)O)C(=O)C1CCCCCC1	-8
CCn1cc(Cl)c(-c2nnc(-c3cccs3)o2)n1	0
O=C1[C@@H]2CCCN2c2ccc(S(=O)(=O)N3CCOCC3)cc2N1Cc1cccc(C(F)(F)F)c1	-20
Cc1cc(C)c(S(=O)(=O)n2ccc(-c3cccc(OCc4ccc(Cl)cc4Cl)c3)n2)c(C)c1	-7
[2H]C1([2H])NC([2H])([2H])C([2H])([2H])N(S(=O)(=O)c2ccc(OCC)c(-c3nc(=O)c4c([nH]3)c(CCC)nn4C)c2)C1([2H])[2H]	0
COc1ccccc1Cn1cnc2c1c(=O)n(C1CCCCC1)c(=O)n2-c1ccccc1Cl	90
O=C1N(c2ccccc2)CN(C2CCCCC2)CN1c1nc(-c2ccccc2)cs1	0
COCCO[C@H]1CCOC2(CCN(C(=O)Cc3cccc(C)c3)CC2)C1	14
Cc1cc2nccc([C@H](C)Oc3ccc(-c4ccccc4)c(F)c3)n2n1	11
Cc1cccc(N2CCN(c3ncc4c(=O)n(-c5ccc6c(c5)OCO6)c(=O)[nH]c4n3)CC2)c1	-1
CCOc1ccc(C2C(C(=O)O)CCC(=O)N2C2CCCCC2)cc1 (stereo not given)	10
Cc1ccc(S(=O)(=O)N2CCC[C@H](C(=O)NCc3cccc(NC(=O)N4CCCC4)c3)C2)s1	8
O=c1cc2c(nn1Cc1ccccc1Cl)-c1ccccc1CC2	0
COc1cccc(CNC(=O)CCC(=O)N(c2ccccc2)c2ccccc2)c1	13
Cc1c(Br)c(C(F)F)nn1CC(=O)N[C@@H](C)C(C)(C)C	-11
COc1cccc(NC(=O)c2ccccc2C(=O)OCCN2CCOCC2)c1	15
CC(=O)c1ccc(NC(=O)c2cnc(-c3ccc4c(c3)CCO4)s2)cc1	11
Cc1ccccc1N1CCN(C(=O)c2csc(C(=O)NC3CCCC3)n2)CC1	-7
O=C(N[C@H]1C[C@H]2C(=O)Nc3ccccc3C(=O)N2C1)c1cccnc1	1
COc1cccc(CNCc2ccccc2)c1OCc1ccccc1Cl	2
CC[C@H]1Cn2c(C(=O)NCCN3CCCC3)cc3cccc(c32)O1	-10
COc1ccc(-n2nc(-c3ccc(C)cc3)c3cnc4c(F)cccc4c32)cc1	8
